Measured values reported in US9045526B2 (THE REGENTS OF THE UNIVERSITY OF MICHIGAN, priority 2011, dated 2015).
Numbered stars: 1 amine (or outer) side, 2 acyl side, 3 side chain; on linkers, the order of the positions; unused ones are H or OH. Bridge positions count the residues as written; N and C are the ends. Square brackets hold non-standard residues; d marks the D form. Peptide text beside a SMILES is read from it. * marks the point of attachment. βGlc = OC[C@H]1O[C@@H](*)[C@H](O)[C@@H](O)[C@@H]1O; Dmt = Cc1cc(O)cc(C)c1C[C@H](N)C(=O)O; dPen = CC(C)(S)[C@@H](N)C(=O)O; Aic = NC1(C(=O)O)Cc2ccccc2C1; CH2CH2 = C(C[*:2])[*:1]

Columns and labels:
MOR = MOR (Rattus norvegicus, UniProt P33535); assay: MOR | EC50, nM; design: expressed in transfected cells; host or cells: C6 rat glioma cells (C6-MOR), stably transfected
MOR, sequence (P33535 whole entry, looked up): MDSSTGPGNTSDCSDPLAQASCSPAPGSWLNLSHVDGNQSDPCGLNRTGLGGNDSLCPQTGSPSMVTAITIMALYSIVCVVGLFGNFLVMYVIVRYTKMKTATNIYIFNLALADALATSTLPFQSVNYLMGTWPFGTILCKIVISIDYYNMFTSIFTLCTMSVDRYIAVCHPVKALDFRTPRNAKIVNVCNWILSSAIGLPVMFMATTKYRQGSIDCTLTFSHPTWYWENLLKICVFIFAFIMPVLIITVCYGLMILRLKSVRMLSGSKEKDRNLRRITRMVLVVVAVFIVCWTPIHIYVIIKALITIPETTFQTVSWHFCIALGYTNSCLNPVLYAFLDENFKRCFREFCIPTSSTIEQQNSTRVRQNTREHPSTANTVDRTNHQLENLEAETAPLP
Source text: (§1) Table printed on a drawing sheet, FIGURE 5

DOR [1] = target: T1, DOR (Rattus norvegicus, UniProt P33533); assay: DOR | % max.; design: expressed in transfected cells; host or cells: C6 rat glioma cells (C6-DOR), stably transfected; details: 10 µM
T1 sequence (P33533 whole entry, looked up): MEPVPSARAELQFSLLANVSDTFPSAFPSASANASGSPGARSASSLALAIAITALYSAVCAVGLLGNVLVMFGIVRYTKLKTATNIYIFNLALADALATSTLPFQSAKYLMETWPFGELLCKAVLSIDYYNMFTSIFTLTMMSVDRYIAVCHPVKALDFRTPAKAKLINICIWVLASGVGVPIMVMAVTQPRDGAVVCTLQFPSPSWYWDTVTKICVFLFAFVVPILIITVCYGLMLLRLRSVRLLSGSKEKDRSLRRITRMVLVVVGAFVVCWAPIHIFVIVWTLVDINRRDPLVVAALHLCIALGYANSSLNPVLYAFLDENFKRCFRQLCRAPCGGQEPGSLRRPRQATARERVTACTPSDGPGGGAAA
Source text: as §1
Head of the field: DOR | % max.

DOR [2] = target: T1, DOR; assay: DOR | EC50; design: expressed in transfected cells; host or cells: C6 rat glioma cells (C6-DOR), stably transfected
Source text: as §1
Head of the field: DOR | EC50

[3] = target: T2, delta-opioid receptor (DOR) (Rattus norvegicus, UniProt P33533); details: JOM-6 data taken from McFadyen et al. 2000; read-out: binding affinity at DOR; cited from earlier work
T2 construct: expressed in transfected cells; host or cells: C6 rat glioma cells (C6-DOR), stably transfected
T2 sequence (P33533 whole entry): as the sequence (P33533 whole entry, looked up) above

mu-opioid receptor (MOR) = target: T3, mu-opioid receptor (MOR) (Rattus norvegicus, UniProt P33535); details: JOM-6 data taken from McFadyen et al. 2000; read-out: binding affinity at MOR; cited from earlier work
T3 construct: expressed in transfected cells; host or cells: C6 rat glioma cells (C6-MOR), stably transfected
T3 sequence (P33535 whole entry): as the sequence (P33535 whole entry, looked up) above

Molecule	EC50 (MOR)	DOR | % max. (DOR [1])	EC50 (DOR [2])	Ki [3]	Ki (mu-opioid receptor (MOR))
Cc1cc(O)cc(C)c1C[C@H](N)C(=O)N[C@@H]1CSCCSC(C)(C)[C@H](C(=O)N[C@@H](CCCNC(=N)N)C(N)=O)NC(=O)C2(Cc3ccccc3C2)NC1=O [VRP-24] (H-[Dmt][dC][Aic][dPen]R-NH2; linker 2-4 via CH2CH2)	19.6 ± 6 nM	9.3 ± 6.2 % max.	210 ± 150 nM	–	–
Cc1cc(O)cc(C)c1C[C@H](N)C(=O)N[C@@H]1CSCCSC(C)(C)[C@H](C(=O)N[C@@H](CO)C(N)=O)NC(=O)C2(Cc3ccccc3C2)NC1=O [VRP-19] (H-[Dmt][dC][Aic][dPen]S-NH2; linker 2-4 via CH2CH2)	–	7.53 ± 1.2 % max.	–	–	–
Tyr-(S—CH2-CH2-S)-D-Cys-Phe-D-Pen-NH2 [JOM-6]	–	–	–	25 nM	0.3 nM
Cc1cc(O)cc(C)c1C[C@H](N)C(=O)N[C@@H]1CSCCSC(C)(C)[C@H](C(=O)N[C@@H](CO[C@@H]2O[C@H](CO)[C@@H](O)[C@H](O)[C@H]2O)C(N)=O)NC(=O)C2(Cc3ccccc3C2)NC1=O [VRP-26] (H-[Dmt][dC][Aic][dPen]S(βGlc)-NH2; linker 2-4 via CH2CH2; N-terminus assumed)	15.3 ± 4.5 nM	–	–	–	–
